# Measured values as given in PMC4336329 (PLoS ONE, 2015).
# About 2,200 (0.71%) of roughly 310,000 compounds showed an effect of 50% or more. Effects have a minus sign here. The list shows a part of the results.
# Target: human ether-à-go-go-related gene (hERG) potassium channel (human, UniProt Q12809)
# Test: primary screen, population patch clamp on CHO cells stably expressing hERG
# Sequence of human ether-à-go-go-related gene (hERG) potassium channel (Q12809 whole entry, looked up): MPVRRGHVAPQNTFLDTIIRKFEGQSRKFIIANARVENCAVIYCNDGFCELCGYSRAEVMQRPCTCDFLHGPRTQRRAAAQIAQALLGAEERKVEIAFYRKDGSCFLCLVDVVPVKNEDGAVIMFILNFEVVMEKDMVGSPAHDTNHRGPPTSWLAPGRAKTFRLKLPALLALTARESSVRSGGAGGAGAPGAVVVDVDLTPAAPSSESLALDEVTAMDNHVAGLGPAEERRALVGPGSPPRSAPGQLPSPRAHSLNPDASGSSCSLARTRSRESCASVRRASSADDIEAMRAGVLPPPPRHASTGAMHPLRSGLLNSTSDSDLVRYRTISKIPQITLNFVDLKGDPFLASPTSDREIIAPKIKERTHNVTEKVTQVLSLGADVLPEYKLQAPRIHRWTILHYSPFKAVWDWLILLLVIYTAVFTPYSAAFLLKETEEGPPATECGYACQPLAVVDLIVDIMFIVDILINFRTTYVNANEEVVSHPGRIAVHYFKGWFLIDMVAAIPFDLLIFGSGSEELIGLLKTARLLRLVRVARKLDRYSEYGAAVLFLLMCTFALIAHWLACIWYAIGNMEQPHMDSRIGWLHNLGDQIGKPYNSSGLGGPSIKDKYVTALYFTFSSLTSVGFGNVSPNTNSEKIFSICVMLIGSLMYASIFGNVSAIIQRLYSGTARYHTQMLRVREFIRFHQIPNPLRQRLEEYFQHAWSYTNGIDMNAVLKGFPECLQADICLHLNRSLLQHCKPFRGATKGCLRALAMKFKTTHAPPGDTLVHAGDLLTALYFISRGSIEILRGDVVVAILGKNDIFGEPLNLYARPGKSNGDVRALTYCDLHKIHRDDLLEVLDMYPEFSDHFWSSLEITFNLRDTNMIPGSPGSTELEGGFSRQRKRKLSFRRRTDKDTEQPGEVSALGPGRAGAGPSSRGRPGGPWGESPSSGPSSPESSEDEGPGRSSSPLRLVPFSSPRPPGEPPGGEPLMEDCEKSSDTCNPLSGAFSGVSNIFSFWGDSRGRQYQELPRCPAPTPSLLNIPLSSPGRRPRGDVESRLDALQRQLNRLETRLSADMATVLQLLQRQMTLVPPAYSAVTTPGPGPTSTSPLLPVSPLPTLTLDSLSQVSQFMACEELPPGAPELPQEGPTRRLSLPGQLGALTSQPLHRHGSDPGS
row,Compound,"hERG current change (%, negative = inhibition) at 1uM"
1,COc1ccc(NCc2nnc(SCC(=O)Nc3ccccc3)n2C)cc1,0.431%
2,O=c1c(-c2ccccc2)nnc2sc(COc3ccc(Br)cc3)nn12,14.6%
3,CCOc1ccccc1CN1CCC(CO)(CCOc2ccccc2)CC1,-66.8%
4,COc1cccc(C(=O)CN(C(=O)c2ccc(Cl)cc2Cl)N2C(=O)c3ccccc3C2=O)c1,8.71%
5,Cc1ccc(N(CC(=O)NCCc2ccccc2)C(=O)CCC(=O)Nc2cc(C)ccn2)cc1,13.2%
6,CC1=C(C(=O)OCCc2ccccc2)C(c2ccsc2)NC(=O)N1C (stereo not drawn),11.1%
7,CCCCOC(=O)CSCC(=O)Nc1cc(C)on1,11.5%
8,CC(C)(C)NC(=O)C(=O)NNC(=O)c1cccc([N+](=O)[O-])c1,11.9%
9,Cc1cc(C(=O)OCC(=O)N2CCc3ccccc32)c(C)o1,12.3%
10,CCOCCn1ccc2c(OCC(=O)NCCc3ccc(OC)c(OC)c3)cccc2c1=O,3.28%
11,COC(=O)c1c(C)c(OC(=O)c2c(C)cc(O)c(C=O)c2O)cc(C)c1O,18.3%
12,CC(=NCc1cccnc1)c1c(O)n(C2CCCCC2)c(=O)[nH]c1=O,0.173%
13,CC(=O)c1ccc(Oc2cc(C(F)(F)F)cnc2C(N)=O)cc1,13.2%
14,S=c1[nH]nc(COc2ccccc2)n1/N=C/c1ccc(Br)s1,-9.79%
15,CCS(=O)(=O)c1nc(S(=O)(=O)c2ccc(C)cc2)c(NCc2ccccn2)s1,6.35%
16,CCOC(=O)C1=C(C)N=c2s/c(=C\c3ccc(OCC(=O)O)cc3)c(=O)n2C1c1ccc(OC(C)C)cc1 (stereo not drawn),4.65%
17,CCN(Cc1ccccc1)S(=O)(=O)c1ccc2c(c1)NC(=O)CC(=O)N2,-10.3%
18,O=C(NCc1cccnc1)c1cc(Sc2cccc(Cl)c2)nc2ccccc12,3.15%
19,O=C(CSC1=NCCS1)N1CCOCC1,5.97%
20,Nc1cc(=O)[nH]c(=O)n1CCc1ccccc1,16.3%
21,C=CCNC(=O)COC(=O)CNC(=O)c1cc(Cl)cc([N+](=O)[O-])c1,3.83%
22,COc1ccccc1C(=O)N(Cc1ccc(C)o1)C1CCS(=O)(=O)C1 (stereo not drawn),-4.14%

row,Compound,"hERG current change (%, negative = inhibition) at 1uM"
1,O=C(CNCc1ccccc1)Nc1cccc(Cl)c1Cl.O=C(O)C(=O)O,16.5%
2,Cc1nnc(NC(=O)Cn2c(=O)sc3ccccc32)s1,11.9%
3,CCC(C)NC(=O)C1CCCN(S(=O)(=O)c2ccc3c(c2)CC(C)N3C(=O)C2CC2)C1 (stereo not drawn),8.11%
4,CCCCOC(=O)c1ccc(N2C(=O)CC(N3CCN(C/C=C/c4ccccc4)CC3)C2=O)cc1 (stereo not drawn),-5.33%
5,O=C(N/N=C/c1ccc(O)c([N+](=O)[O-])c1)C1CC1(c1ccccc1)c1ccccc1 (stereo not drawn),-9.01%
6,Cc1cccc(NC(=O)C2CCN(C(=O)NC3CCCCC3)CC2)c1,12.7%
7,CCOC(=O)N1CCN(CC(=O)Nc2c(C(=O)OC)[nH]c3ccc(Cl)cc23)CC1,-13.9%
8,O=C1c2ccccc2C(Nc2ccc(F)c(Cl)c2)N1c1ccccn1 (stereo not drawn),17.9%
9,Cc1ccc2[nH]c(=O)c(CN(Cc3cccs3)C(=S)NCc3ccco3)cc2c1,1.14%
10,CN(c1ccccc1C(=O)Nc1ccc(F)c(Cl)c1)S(C)(=O)=O,6.03%
11,O=[N+]([O-])c1ccc(Cl)cc1N/N=C/c1ccncc1,11.3%
12,CCn1cc(S(=O)(=O)Nc2cc(C(=O)OC)ccc2C)cn1,-1.09%
13,C/C(=N\NC(=S)NC1CCCCC1)c1cccc(C(F)(F)F)c1,14.3%
14,O=C(Nc1nc(=S)ss1)c1c(F)cccc1F,10.4%
15,Cc1cc(=O)oc2cc(OCC(=O)OCC(=O)N(C)C3CCS(=O)(=O)C3)ccc12 (stereo not drawn),6.15%
16,Cc1ccc(C2C(C#N)=C(N)N(c3cccnc3)C3=C2C(=O)CCC3)c(C)c1 (stereo not drawn),7.23%
17,CC1CCCC(NC(=O)C2CCCN2S(=O)(=O)c2cccc3nsnc23)C1C (stereo not drawn),7.42%
18,COc1ccc2cc(C(N)=O)/c(=N/NC(=O)c3ccco3)oc2c1,2.5%
19,CCOc1ccc(/C=N/n2c(C3CCCCC3)n[nH]c2=S)cc1,13.8%
20,Cc1cc(=O)n2c(-c3ccc(Cl)cc3)csc2n1,9.2%
21,Cc1cccc(NC(=O)c2cc(S(=O)(=O)c3ccccc3)ccc2Cl)c1,-1.59%
22,Cn1nnnc1SCC(=O)N(C1CCCCC1)C1CCCCC1,7.38%

row,Compound,"hERG current change (%, negative = inhibition) at 1uM"
1,C=C(C)Cn1c(=O)c2c(nc3n2CCN3c2cccc(Cl)c2C)n(C)c1=O,14.8%
2,O=C(NCCc1ccco1)C(=O)NCC1OCCCN1S(=O)(=O)c1ccc(Cl)cc1 (stereo not drawn),13.5%
3,CCOCc1nnc(NC(=O)c2ccc(OC)cc2)s1,13.9%
4,CNc1ccccc1C(=O)OC(C)C(=O)Nc1ccc(S(=O)(=O)N2CCCC2)cc1 (stereo not drawn),11.2%
5,Cc1cccc(N2C(=O)c3cccc4c(N(C)CCO)ccc(c34)C2=O)c1,-3.41%
6,CCc1nc(SCc2ccccc2C#N)n[nH]1,15.7%
7,O=C(COC(=O)c1cccc(S(=O)(=O)N2CCOCC2)c1)c1ccccc1,20.3%
8,COc1cccc(C(=O)NC2CCN(CC(=O)NCc3ccccc3F)CC2)c1,11.9%
9,Cc1n[nH]c(=S)n1/N=C/c1cccc(OCc2ccccc2)c1,20.1%
10,Cl.O=C(Nc1ccc(Br)cn1)c1ccc(Br)s1,13.3%
11,COC(=O)C1Cc2ccccc2CN1C(=O)CCl (stereo not drawn),3.85%
12,CCCCCN=C(N)N/N=C/c1c[nH]c2ccc(OC)cc12.O=C(O)/C=C\C(=O)O,4.57%
13,CNC(=O)CSc1nnc(C2CC2)n1-c1ccccc1,7.01%
14,O=C1c2ccccc2C(=O)N1c1ccccc1S(=O)C(F)(F)F (stereo not drawn),10.1%
15,CCOc1ccc(C)cc1S(=O)(=O)n1ccnc1,15.2%
16,O=C(Oc1ccccc1C(=S)N1CCOCC1)c1cccc([N+](=O)[O-])c1,8.85%
17,CN(C(=O)COC(=O)c1cc(S(=O)(=O)N(C)C)ccc1Cl)C1CCS(=O)(=O)C1 (stereo not drawn),1.46%
18,Cc1ccc(NC(=O)CN2CCC(NC(=O)Cc3ccccc3)CC2)c(C)c1,0.63%
19,Cc1cc(C)c(NC(=O)Cn2ncc3ccccc32)c(C)c1,5.74%
20,Cn1cnc([N+](=O)[O-])c1Nc1cccc(O)c1,9.65%
21,O=C(NCC1CCCO1)c1ccccc1S(=O)(=O)c1ccc([N+](=O)[O-])cc1 (stereo not drawn),13.2%
22,Cc1ccc(NC(=O)CN(C)C(=O)Cc2ccc(Cl)cc2Cl)cc1,14.1%

row,Compound,"hERG current change (%, negative = inhibition) at 1uM"
1,COc1ccc(-c2csc(NC(=O)CSC(C)C(=O)Nc3cc(C)on3)n2)cc1OC (stereo not drawn),0.855%
2,NC(=O)C1CCCN(C(=S)Nc2ccccc2)C1 (stereo not drawn),8.2%
3,O=C1Nc2ccc(Br)cc2/C1=C/C1CC=CCC1 (stereo not drawn),-0.575%
4,CCNc1nc(Oc2ccc(=O)n(-c3ccccc3)n2)nc(N2CCOCC2)n1,5.94%
5,Cc1ccc(-n2c(SCC(=O)Nc3ccc(C(=O)O)cc3)nnc2-c2ccncc2)cc1,7.63%
6,COc1cc(OC)cc(C(=O)NC(=S)NNC(=O)c2cnccn2)c1,5.19%
7,Cc1ccc2cccc(OC(=O)N(C)c3ccccc3)c2n1,14.7%
8,O=C(O)Cc1cn(-c2ccccc2)nc1-c1ccc(Cl)cc1,4.98%
9,CCn1cc(C(=O)N2CCN(c3cccc(C)c3C)CC2)c(=O)c2ccc(C)nc21,-4.58%
10,COc1ccc(N(C(=O)c2ccco2)S(=O)(=O)c2ccc(F)cc2)cc1,13.3%
11,COCCNC(=O)/C(C#N)=C\c1ccc(CNS(=O)(=O)c2ccccc2)o1,22.8%
12,CCn1nc(C)cc1-c1nnc(SCC(=O)Nc2ccccc2)n1CCCOC,13.1%
13,Cc1cccc(Oc2ccccc2NC(=O)C2=COCCO2)c1,10.9%
14,O=C(Nc1ccccc1)O[C@@H]1C[C@H]2CCC(=O)N3CC[C@@H](C1)[C@@H]23,4.55%
15,O=C(Nc1cccc(-c2cn3ccccc3n2)c1)c1cnccn1,9.53%
16,COc1ccc(S(=O)(=O)N2CCCCCC2)cc1N(C)S(=O)(=O)c1ccc(C)cc1,-3.15%
17,O=C(NCCO)c1cc2c([nH]c3ccccc32)c(-c2ccccc2)n1,7.99%
18,Cc1ccc2[nH]c(=O)c(C3C(C#N)=C(N)Oc4c3ccc3cccnc43)cc2c1 (stereo not drawn),-0.46%
19,O=C(CCC1CCN(Cc2ccc(C#CCCO)cc2)CC1)NC1CC1,-11.1%
20,Cc1cc(C(F)(F)F)n2ncc(-c3cccc(Br)c3)c2n1,16.2%
21,CCn1nc(C(=O)OCC(=O)c2ccc3c(c2)OCCO3)c2ccccc2c1=O,5.64%
